Consider 31 sequences from publication PMC12820563, “FoxP3 forms a head-to-head dimer in vivo and stabilizes its multimerization on adjacent microsatellites”.

This is one part of the list.

This experiment concerns the target T1, MBP-FoxP1dN (Mus musculus, UniProt P58462 326-579).
T1 sequence: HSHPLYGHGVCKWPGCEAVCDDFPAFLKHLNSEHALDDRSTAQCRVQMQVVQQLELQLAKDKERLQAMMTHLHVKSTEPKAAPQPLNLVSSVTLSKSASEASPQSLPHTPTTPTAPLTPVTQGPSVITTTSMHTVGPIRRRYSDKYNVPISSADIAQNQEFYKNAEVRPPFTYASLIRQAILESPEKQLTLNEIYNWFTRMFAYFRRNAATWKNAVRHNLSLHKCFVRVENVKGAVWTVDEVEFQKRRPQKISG
Nature of the experiment: PD-seq (MBP pull-down with sequencing); 20 mM Tris-HCl pH 7.5, 100 mM NaCl, 1.5 mM MgCl2, 0.4 uM protein, 0.1 uM dsDNA library, 30 min, room temperature, amylose pull-down; high values mean tight binding. Particulars: protein: recombinant; tags: His6-MBP; chain copies: 2; dsDNA, one strand shown. The method, boiled down:
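The N-terminus-lacking fragment of mouse FoxP3 or FoxP1 carried a His6-MBP tag and was expressed in E. coli. At 0.4 µM it was incubated with 0.1 µM Klenow-filled degenerate double-stranded DNA library for 30 min at room temperature in Tris pH 7.5 buffer with NaCl and MgCl2, and complexes were caught on amylose resin, washed three times, released with proteinase K, PCR-barcoded and Illumina-sequenced. Binding is reads-per-million enrichment of pull-down over input with replicates pooled.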
For “GATGATTGTTCTCCCAGCTGATGAATTCTGGTATTCGAGTAAACAAATTTTCCTAATCTTTCTGTTCAAGCGCCATCTAC”, the binding signal was 0.915 RPM ratio (pull-down/input).
The same measure for “GATGATTGTTCTCCCAGCTGATGAATTGACTCCATCGAGTAAACAAATTTTCCTAATCTTTCTGTTCAAGCGCCATCTAC”: 1.06 RPM ratio (pull-down/input); for “GATGATTGTTCTCCCAGCTGATGAATTAACTGTCTCGAGTAAACAAATTTTCCTAATCTTTCTGTTCAAGCGCCATCTAC”: 0.829 RPM ratio (pull-down/input); for “GATGATTGTTCTCCCAGCTGATGAATTCAGCTCGTCGAGTAAACAAATTTTCCTAATCTTTCTGTTCAAGCGCCATCTAC”: 0.747 RPM ratio (pull-down/input).
The same measure for “GATGATTGTTCTCCCAGCTGATGAATTAAGAGTATCGAGTAAACAAATTTTCCTAATCTTTCTGTTCAAGCGCCATCTAC”: 1.06 RPM ratio (pull-down/input); for “GATGATTGTTCTCCCAGCTGATGAATTGACCCTCTCGAGTAAACAAATTTTCCTAATCTTTCTGTTCAAGCGCCATCTAC”: 0.846 RPM ratio (pull-down/input); for “GATGATTGTTCTCCCAGCTGATGAATTGCCAGTTTCGAGTAAACAAATTTTCCTAATCTTTCTGTTCAAGCGCCATCTAC”: 0.967 RPM ratio (pull-down/input).
Consider “GATGATTGTTCTCCCAGCTGATGAATTATGGCGATCGAGTAAACAAATTTTCCTAATCTTTCTGTTCAAGCGCCATCTAC”, for which the binding signal was 0.99 RPM ratio (pull-down/input).
For “GATGATTGTTCTCCCAGCTGATGAATTATGAATATCGAGTAAACAAATTTTCCTAATCTTTCTGTTCAAGCGCCATCTAC”, the binding signal was 1.07 RPM ratio (pull-down/input).
For “GATGATTGTTCTCCCAGCTGATGAATTAGACTACTCGAGTAAACAAATTTTCCTAATCTTTCTGTTCAAGCGCCATCTAC”, the binding signal is 0.82 RPM ratio (pull-down/input).
On to “GATGATTGTTCTCCCAGCTGATGAATTTGAGCTATCGAGTAAACAAATTTTCCTAATCTTTCTGTTCAAGCGCCATCTAC”, for which the binding signal was 0.88 RPM ratio (pull-down/input).
For “GATGATTGTTCTCCCAGCTGATGAATTTAGCCTATCGAGTAAACAAATTTTCCTAATCTTTCTGTTCAAGCGCCATCTAC”, the binding signal is 0.952 RPM ratio (pull-down/input).
The same measure for “GATGATTGTTCTCCCAGCTGATGAATTGCGATGCTCGAGTAAACAAATTTTCCTAATCTTTCTGTTCAAGCGCCATCTAC”: 1.2 RPM ratio (pull-down/input); for “GATGATTGTTCTCCCAGCTGATGAATTCTGGGCCTCGAGTAAACAAATTTTCCTAATCTTTCTGTTCAAGCGCCATCTAC”: 0.745 RPM ratio (pull-down/input); for “GATGATTGTTCTCCCAGCTGATGAATTTACCGGATCGAGTAAACAAATTTTCCTAATCTTTCTGTTCAAGCGCCATCTAC”: 1.02 RPM ratio (pull-down/input).
For the sequence “GATGATTGTTCTCCCAGCTGATGAATTAGTTGGCTCGAGTAAACAAATTTTCCTAATCTTTCTGTTCAAGCGCCATCTAC”, the binding signal was 0.862 RPM ratio (pull-down/input).
Consider “GATGATTGTTCTCCCAGCTGATGAATTGCCACCGTCGAGTAAACAAATTTTCCTAATCTTTCTGTTCAAGCGCCATCTAC”, for which the binding signal was 0.977 RPM ratio (pull-down/input).
“GATGATTGTTCTCCCAGCTGATGAATTTGGTGATTCGAGTAAACAAATTTTCCTAATCTTTCTGTTCAAGCGCCATCTAC”: the binding signal is 0.983 RPM ratio (pull-down/input).
Regarding “GATGATTGTTCTCCCAGCTGATGAATTATACGAGTCGAGTAAACAAATTTTCCTAATCTTTCTGTTCAAGCGCCATCTAC”, the binding signal was 0.894 RPM ratio (pull-down/input).
In the case of “GATGATTGTTCTCCCAGCTGATGAATTATGCGGATCGAGTAAACAAATTTTCCTAATCTTTCTGTTCAAGCGCCATCTAC”, the binding signal was 0.98 RPM ratio (pull-down/input).
As to “GATGATTGTTCTCCCAGCTGATGAATTTGCCGCGTCGAGTAAACAAATTTTCCTAATCTTTCTGTTCAAGCGCCATCTAC”, the binding signal was 0.902 RPM ratio (pull-down/input).
Turning to “GATGATTGTTCTCCCAGCTGATGAATTCTCTAGGTCGAGTAAACAAATTTTCCTAATCTTTCTGTTCAAGCGCCATCTAC”, the binding signal was 0.795 RPM ratio (pull-down/input).
For the sequence “GATGATTGTTCTCCCAGCTGATGAATTATGTACCTCGAGTAAACAAATTTTCCTAATCTTTCTGTTCAAGCGCCATCTAC”, the binding signal was 1.22 RPM ratio (pull-down/input).
The result for “GATGATTGTTCTCCCAGCTGATGAATTGACCATGTCGAGTAAACAAATTTTCCTAATCTTTCTGTTCAAGCGCCATCTAC” reads 0.875 RPM ratio (pull-down/input); that for “GATGATTGTTCTCCCAGCTGATGAATTTTTTGTATCGAGTAAACAAATTTTCCTAATCTTTCTGTTCAAGCGCCATCTAC”, 1.26 RPM ratio (pull-down/input); that for “GATGATTGTTCTCCCAGCTGATGAATTAGAAGATTCGAGTAAACAAATTTTCCTAATCTTTCTGTTCAAGCGCCATCTAC”, 0.926 RPM ratio (pull-down/input).
The same measure for “GATGATTGTTCTCCCAGCTGATGAATTGGCCACCTCGAGTAAACAAATTTTCCTAATCTTTCTGTTCAAGCGCCATCTAC”: 0.827 RPM ratio (pull-down/input).
On to “GATGATTGTTCTCCCAGCTGATGAATTGTCGGGGTCGAGTAAACAAATTTTCCTAATCTTTCTGTTCAAGCGCCATCTAC”, for which the binding signal was 0.788 RPM ratio (pull-down/input).
For the sequence “GATGATTGTTCTCCCAGCTGATGAATTTGAGCGTTCGAGTAAACAAATTTTCCTAATCTTTCTGTTCAAGCGCCATCTAC”, the binding signal is 0.876 RPM ratio (pull-down/input).
The result for “GATGATTGTTCTCCCAGCTGATGAATTGCGCTTTTCGAGTAAACAAATTTTCCTAATCTTTCTGTTCAAGCGCCATCTAC” reads 1.24 RPM ratio (pull-down/input); that for “GATGATTGTTCTCCCAGCTGATGAATTACTTCTATCGAGTAAACAAATTTTCCTAATCTTTCTGTTCAAGCGCCATCTAC”, 1.09 RPM ratio (pull-down/input).
